Article PMC11373600
Changes are numbered by the printed parent chain. Read-outs that look alike come from different tables or passages of the source. These are yes or no findings as the source states them, for the method shown. In cells and extracts the contact can be indirect. Some entries that bind do so weakly or less than the wild type. Where a sequence is shown, tags or fusion partners need not be part of it. Values belong to the molecule of their own block, whether it stands above or below them.

Chains of the proteins cited; added tags and fusions are not shown. Lines headed by an entry give the natural chain unless they say otherwise; changes in a name come on top.
UniProt P36404: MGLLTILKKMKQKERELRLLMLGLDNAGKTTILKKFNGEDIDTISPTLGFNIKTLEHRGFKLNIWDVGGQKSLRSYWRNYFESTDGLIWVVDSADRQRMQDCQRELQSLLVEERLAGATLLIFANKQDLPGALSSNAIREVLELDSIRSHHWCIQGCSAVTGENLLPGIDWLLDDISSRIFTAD
UniProt P36405: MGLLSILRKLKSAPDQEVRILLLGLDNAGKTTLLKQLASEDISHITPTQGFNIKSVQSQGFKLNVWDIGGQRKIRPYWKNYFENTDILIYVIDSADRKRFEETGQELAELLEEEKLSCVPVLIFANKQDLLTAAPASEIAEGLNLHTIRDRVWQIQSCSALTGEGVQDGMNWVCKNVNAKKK

Key:
[1] = target: T1, GFP-HsDAW1(W372C) (human) (UniProt Q8N136); assay: co-IP; GFP-HsDAW1 or its disease variants coexpressed with HA-HsIFT88, HsARL2-HA or HsARL3-HA in HEK293T; GFP-Trap; 1% NP-40 lysis buffer diluted to 0.5%; 90 min at 4°C
T1 sequence: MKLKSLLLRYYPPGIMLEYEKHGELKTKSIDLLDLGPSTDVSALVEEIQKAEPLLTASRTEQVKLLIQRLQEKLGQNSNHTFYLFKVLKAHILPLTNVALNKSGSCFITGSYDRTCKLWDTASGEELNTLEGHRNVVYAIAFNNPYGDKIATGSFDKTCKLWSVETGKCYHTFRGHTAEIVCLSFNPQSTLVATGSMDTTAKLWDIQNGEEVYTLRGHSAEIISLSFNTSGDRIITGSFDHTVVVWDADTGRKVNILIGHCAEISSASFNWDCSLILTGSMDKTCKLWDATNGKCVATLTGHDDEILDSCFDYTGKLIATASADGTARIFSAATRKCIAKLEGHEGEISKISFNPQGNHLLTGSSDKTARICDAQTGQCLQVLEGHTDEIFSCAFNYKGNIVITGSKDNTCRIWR

[2] = target: T2, GFP-HsDAW1 (human) (UniProt Q8N136); assay: as above
T2 sequence: T1 sequence with C372W

[3] = target: T3, GFP-HsDAW1(S364T) (human) (UniProt Q8N136); assay: as above
T3 sequence: T1 sequence with S364T, C372W

[4] = target: HsARL2-3×HA (human) (UniProt P36404); assay: co-IP; HA-tagged HsARL2 or HsARL3 variants coexpressed with GFP-HsDAW1 in HEK293T; anti-HA IP resin; lysis buffer with 0.5% NP-40; 90 min at 4°C
[5] = target: HsARL3(T31N)-3×HA (human) (UniProt P36405); assay: as above
[6] = target: HsARL3(Q71L)-3×HA (human) (UniProt P36405); assay: as above
[7] = target: HsARL2(Q70L)-3×HA (human) (UniProt P36404); assay: as above
[8] = target: HsARL3-3×HA (human) (UniProt P36405); assay: as above
[9] = target: T4, GFP-HsDAW1(N143D) (human) (UniProt Q8N136); assay: co-IP; GFP-HsDAW1 or its disease variants coexpressed with HA-HsIFT88, HsARL2-HA or HsARL3-HA in HEK293T; GFP-Trap; 1% NP-40 lysis buffer diluted to 0.5%; 90 min at 4°C
T4 sequence: T1 sequence with N143D, C372W

[10] = target: T1, GFP-HsDAW1(W372C) (human); assay: as above; remark: listed apart in the source
[11] = target: T2, GFP-HsDAW1 (human); assay: as above; remark: listed apart in the source
[12] = target: T3, GFP-HsDAW1(S364T) (human); assay: as above; remark: listed apart in the source

binding [1]: no binding
binding [2]: binds
binding [3]: no binding
Molecule: HsARL2-3×HA (from UniProt P36404 1-184)

binding [1]: no binding
binding [2]: binds
binding [3]: no binding
Molecule: HsARL3-3×HA (from UniProt P36405 1-182)

binding [4]: binds
binding [5]: binds
binding [6]: binds
binding [7]: binds
binding [8]: binds
B1: GFP-HsDAW1 (protein, UniProt Q8N136 1-415)
chain: T1 sequence with C372W

binding [9]: binds
binding [10]: binds
binding [11]: binds
binding [12]: binds
B2: 3×HA-HsIFT88 (protein, UniProt Q13099 1-824)
chain: MMQNVHLAPETDEDDLYSGYNDYNPIYDIEELENDAAFQQAVRTSHGRRPPITAKISSTAVTRPIATGYGSKTSLASSIGRPMTGAIQDGVTRPMTAVRAAGFTKAALRGSAFDPLSQSRGPASPLEAKKKDSPEEKIKQLEKEVNELVEESCIANSCGDLKLALEKAKDAGRKERVLVRQREQVTTPENINLDLTYSVLFNLASQYSVNEMYAEALNTYQVIVKNKMFSNAGILKMNMGNIYLKQRNYSKAIKFYRMALDQVPSVNKQMRIKIMQNIGVTFIQAGQYSDAINSYEHIMSMAPNLKAGYNLTICYFAIGDREKMKKAFQKLITVPLEIDEDKYISPSDDPHTNLVTEAIKNDHLRQMERERKAMAEKYIMTSAKLIAPVIETSFAAGYDWCVEVVKASQYVELANDLEINKAVTYLRQKDYNQAVEILKVLEKKDSRVKSAAATNLSALYYMGKDFAQASSYADIAVNSDRYNPAALTNKGNTVFANGDYEKAAEFYKEALRNDSSCTEALYNIGLTYEKLNRLDEALDCFLKLHAILRNSAEVLYQIANIYELMENPSQAIEWLMQVVSVIPTDPQVLSKLGELYDREGDKSQAFQYYYESYRYFPCNIEVIEWLGAYYIDTQFWEKAIQYFERASLIQPTQVKWQLMVASCFRRSGNYQKALDTYKDTHRKFPENVECLRFLVRLCTDLGLKDAQEYARKLKRLEKMKEIREQRIKSGRDGSGGSRGKREGSASGDSGQNYSASSKGERLSARLRALPGTNEPYESSSNKEIDASYVDPLGPQIERPKTAAKKRIDEDDFADEELGDDLLPE
